Source: PubChem BioAssay AID686970 (National Center for Advancing Translational Sciences (NCATS), 2013)
About 6,000 (1.7%) of roughly 360,000 compounds were called active. The inconclusive results got no clear call from the source; some entries with a clear call stand among them for comparison. Calls follow the shape of the dose curve; as a rule, active = well fitted cell-killing curve with a large enough effect; inconclusive = small, poorly fitted or top-dose-only effect, or effect the other way; inactive = flat fitted curve, though single readings scatter. No potency is given beside an inconclusive call; the fits are too rough.

Assay: qHTS for induction of synthetic lethality in tumor cells producing 2HG: qHTS for the HT-1080-NT fibrosarcoma cell line;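 also: NT is the 2HG producing partner of a matched IDH1 knockdown line; nearly all actives have a fitted effect of over 55% in size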;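 as to activity, negative = less viability: 0% = DMSO-treated cells and -100% = media-only wells without cells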
Conditions: HT-1080-NT fibrosarcoma viability, CellTiter-Glo ATP luminescence, 48 h; activity, negative = less viability: at 46.1 µM (top of the series) unless noted
Summary of the method: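 Read-out is CellTiter-Glo luminescence after 10 minutes at room temperature, following 48 hours' compound treatment of HT-1080-NT cells (750 cells/well, RPMI, 5% FBS, 37 degrees C).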
Potency is read from the fitted curve at half-maximal effect; tags tell the direction and shape of the fitted curve.

Question: Which Potency does the source give for `O=C(c1cc2sccc2n1Cc1ccc(F)cc1)N1CCCc2ccccc21` here?
Answer: inactive

Question: For `O=C(Nc1nc2ccc(F)cc2s1)c1ccccn1`, which Potency is on record?
Answer: inconclusive [cytotoxic, partial curve, poor fit]

Question: For `CCCN1C(=O)c2[nH]nc(-c3cc(Cl)c(C)cc3O)c2C1c1ccc(O)c(OC)c1` (configuration not stated), which Potency is on record?
Answer: inconclusive [cytotoxic, single point]

Question: For `COC(=O)Cc1ccc(NC(=O)c2ccccc2Cl)cc1`, which Potency is on record?
Answer: inactive

Question: For `CC(C)c1ccccc1NC(=O)Nc1ccc2c(c1)OCO2`, which Potency is on record?
Answer: inactive

Question: With `O=c1c2ccccc2c(C=Nc2ccccc2O)c(O)n1-c1nccs1` as the compound, how does the Potency read?
Answer: inconclusive [rising, single point]

Question: With `NC(CSC(c1ccccc1)(c1ccccc1)c1ccccc1)C(=O)O` (configuration not stated) as the compound, how does the Potency read?
Answer: inconclusive [cytotoxic, full curve]

Question: Which Potency does the source give for `COc1c(C=O)c2c(c(OC)c1OC)-c1ccc(OC)c(=O)cc1C(NC(C)=O)CC2` (configuration not stated) here?
Answer: active: 0.0052 µM

Question: With `CCCCN(CCCC)S(=O)(=O)c1ccc(NC(=O)Cc2cccs2)cc1` as the compound, how does the Potency read?
Answer: inconclusive [cytotoxic, single point]

Question: Which activity, negative = less viability does the source give for `C=CCNc1ncnc2c1cnn2-c1ccc(Cl)cc1` here?
Answer: inconclusive: 12.4%

Question: With `CN(C)/C=C/C(=O)/C=C/c1cn(-c2ncc(C(F)(F)F)cc2Cl)c2ccccc12` as the compound, how does the Potency read?
Answer: inconclusive [cytotoxic, single point]

Question: Which Potency does the source give for `Cc1nc2c(C)cccc2cc1C(=O)N/N=C/c1ccc(C(=O)O)cc1` here?
Answer: inactive

Question: Which Potency does the source give for `COC(=O)C1(C(=O)OC)c2cc3c(cc2CN(S(=O)(=O)c2ccc(C)cc2)C1CC(C)=O)OCO3` (configuration not stated) here?
Answer: inactive

Question: For `CCCc1cc(=O)oc2cc(OCC(=O)NCCc3c[nH]c4ccccc34)ccc12`, which Potency is on record?
Answer: inconclusive [cytotoxic, single point]

Question: For `COc1ccc(CNC(=O)Nc2nc(C(N)c3ccccc3)cs2)cc1` (configuration not stated), which Potency is on record?
Answer: inconclusive [cytotoxic, single point]

Question: For `COc1ccc(-c2cn3c(C)c(C(=O)Nc4ccncc4)sc3n2)cc1`, which Potency is on record?
Answer: inconclusive [cytotoxic, single point]

Question: For `CCC(c1nnnn1-c1ccc2c(c1)OCCO2)N1CCN(c2ncccn2)CC1` (configuration not stated), which Potency is on record?
Answer: inactive

Question: Which Potency does the source give for `Cc1sc2ncnc(NCCc3ccc(S(N)(=O)=O)cc3)c2c1C` here?
Answer: inactive

Question: Which Potency does the source give for `CCOC(=O)[C@]12CCCC=C1N(Cc1ccccc1)C(=O)[C@H](CC(=O)NCCCN1CCCC1=O)C2` here?
Answer: inactive

Question: For `N#CC1=C(N)Oc2cc(N)ccc2C1c1ccccc1` (configuration not stated), which Potency is on record?
Answer: inconclusive [cytotoxic, partial curve]

Question: With `COc1ccc(C(=O)OCC(=O)NC2CC2)cc1` as the compound, how does the Potency read?
Answer: inactive

Question: Which Potency does the source give for `C/C(=N\NC(=O)Cc1ccc(Cl)cc1)c1ccccn1` here?
Answer: active: 1.78 µM

Question: Which activity, negative = less viability does the source give for `Cc1cc(NC(=O)CCC(=O)N(c2cccc(F)c2)C(C(=O)NC2CCCC2)c2ccncc2)no1` (configuration not stated) here?
Answer: inconclusive: 0.947% [cytotoxic]

Question: With `Cc1ccccc1C(=O)Nc1ccc(N2CCCCCC2)cc1` as the compound, how does the Potency read?
Answer: inconclusive [cytotoxic, single point]

Question: With `C[C@H](O)[C@@H]1CN2CCc3c([nH]c4ccccc34)[C@@H]2C[C@@H]1N(C)C(=O)c1ccco1` as the compound, how does the Potency read?
Answer: active: 25.9 µM

Question: Which Potency does the source give for `O=c1c2ccccc2sc2nc(CCl)nn12` here?
Answer: active: 6.51 µM

Question: For `COc1cccc(-c2nc(-c3ccccn3)no2)c1`, which Potency is on record?
Answer: inconclusive [cytotoxic, single point]

Question: For `Clc1ccc(CSc2nnc(CNc3cccc(Cl)c3)o2)cc1`, which Potency is on record?
Answer: inconclusive [cytotoxic, single point]

Question: Which Potency does the source give for `CC1CC(C)(C)N(C(=O)CSc2ccc(-c3ccc(F)cc3)nn2)c2ccccc21` (configuration not stated) here?
Answer: inconclusive [cytotoxic, single point]

Question: With `Cn1cccc1C1NC(=O)c2c(sc3c2CCC(C(C)(C)C)C3)N1` (configuration not stated) as the compound, how does the Potency read?
Answer: inactive

Question: Which Potency does the source give for `COC(=O)[C@]1(C)N[C@H](c2ccc(-c3ccc(Cl)c(Cl)c3)c(OC)c2)[C@@H]2C(=O)N(C)C(=O)[C@@H]21` here?
Answer: inconclusive [cytotoxic, single point]

Question: For `CN(C)S(=O)(=O)c1cccc(NC(=O)CSc2cccc3cccnc23)c1`, which Potency is on record?
Answer: active: 18.4 µM

Question: Which Potency does the source give for `COc1ccc(Cc2nc3ccc(C(=O)N(C)CCn4ccnc4)cc3o2)cc1OC` here?
Answer: inactive

Question: With `O=C1N[C@@H](c2ccccc2)COC(=O)[C@@H](Cc2ccc(F)cc2)C/C=C\C[C@H]1CC(=O)N(CCO)Cc1ccccc1` as the compound, how does the Potency read?
Answer: inconclusive [cytotoxic, single point]

Question: Which Potency does the source give for `COc1ccc(CNc2nc(NCc3ccc(OC)c(OC)c3)n(C(=O)c3cccs3)n2)cc1OC` here?
Answer: inconclusive [cytotoxic, single point]

Question: Which Potency does the source give for `COc1ccccc1NS(=O)(=O)c1cc(NC(=O)c2sc3cc(Cl)ccc3c2Cl)ccc1C` here?
Answer: inactive

Question: For `CCCCCCCC[n+]1cccc(C(=O)N(CC)CC)c1`, which Potency is on record?
Answer: inactive

Question: With `C=C1C2=C(C(=O)N1OC)[C@@H](O)[C@@](C)(O)[C@@H](CCCCC)O2` as the compound, how does the Potency read?
Answer: inconclusive [cytotoxic, single point]

Question: For `CCn1ncc(/C=N/NC(=O)c2ccc3c(c2)OCO3)c1C`, which Potency is on record?
Answer: inconclusive [cytotoxic, single point]

Question: Which Potency does the source give for `Cc1ccc(C2C(C(=O)O)c3ccccc3C(=O)N2C)o1` (configuration not stated) here?
Answer: inconclusive [rising, partial curve, poor fit]

Question: Which Potency does the source give for `O=[N+]([O-])c1ccc(NC2CCN(Cc3ccccc3)CC2)c([N+](=O)[O-])c1` here?
Answer: inconclusive [cytotoxic, single point]

Question: With `CCCn1c(Nc2ccccc2C)nc2ccccc21` as the compound, how does the Potency read?
Answer: inactive

Question: Which Potency does the source give for `CCc1nnc(NC(=O)c2ccc(OC)c(S(=O)(=O)N3CCCC3)c2)s1` here?
Answer: inactive

Question: Which Potency does the source give for `CC(=O)c1ccc(OCC(=O)NC2CCCCCC2)cc1` here?
Answer: inactive

Question: With `O=C(NC(=S)NCc1ccc(-c2nc3ccccc3s2)cc1)c1ccco1` as the compound, how does the Potency read?
Answer: inconclusive [cytotoxic, single point]

Question: For `Cc1cc(NC(=O)CCC(=O)N(Cc2ccccc2)C(C(=O)NC2CCCC2)c2ccco2)no1` (configuration not stated), which Potency is on record?
Answer: inactive

Question: Which Potency does the source give for `C=CCNc1nc2cc(-c3ccc(C(=O)N4CCOCC4)cc3)sc2c(=O)n1C` here?
Answer: inconclusive [cytotoxic, partial curve]
